Measurements reported in paper PMC6212790.
This is one part of the list. At the low end of the ranking the order means little.
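Note: rank score from −0.5 (least bound) to 0.5 (best bound).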

What follows are sequences tested against T1, GST-Rok-C97-191 (UniProt O34857) (assay: protein binding microarray). Conditions: Rok is a gene silencer of Bacillus subtilis; high values mean tight binding; most listed sequences are background and not binding sites; double strand, one strand shown.
T1 sequence: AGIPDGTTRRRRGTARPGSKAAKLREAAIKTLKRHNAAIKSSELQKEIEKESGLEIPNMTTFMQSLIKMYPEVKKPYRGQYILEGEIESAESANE
Work on AAGCCAAT yielded a binding signal of -0.0313 E-score. Sequence GACGAGCC has a binding signal of -0.226 E-score. For AGACGGGG, the binding signal was -0.252 E-score. In the case of AGCAAATA, the binding signal is reported as 0.207 E-score. For AGCGTCGG, the binding signal was -0.144 E-score. For AAAAATGC, the binding signal was 0.0184 E-score. Work on GCGAAGTA yielded a binding signal of 0.182 E-score. Work on CAGATATC yielded a binding signal of -0.00243 E-score. In the case of AGGGTATG, the binding signal is reported as -0.182 E-score. For CCTAAGGA, the binding signal was -0.0692 E-score. Sequence ATCGCGCG has a binding signal of 0.0721 E-score. With ACCCGCCT the binding signal was -0.317 E-score. In the case of AAAACCTA, the binding signal is reported as 0.297 E-score. For TCGCTGCA, the binding signal was -0.111 E-score. For CCCGCCAA, the binding signal was -0.237 E-score. In the case of GGGGAGGA, the binding signal is reported as -0.314 E-score. For AGGATGGA, the binding signal was -0.22 E-score. Work on ATTGCTCA yielded a binding signal of 0.0529 E-score. CTCAAGAG showed a binding signal of 0.00759 E-score. CCGCGTAC showed a binding signal of 0.00133 E-score. Sequence GACTCCCC has a binding signal of -0.37 E-score. CCGATACC showed a binding signal of 0.0851 E-score. In the case of CGTACGGA, the binding signal is reported as -0.0542 E-score. AGGCTGAG gave a binding signal of -0.207 E-score. With ACCGCACC the binding signal was -0.266 E-score. With CTGCAGGA the binding signal was -0.28 E-score. Sequence CACTGAAA has a binding signal of -0.232 E-score. With CGCGCAAC the binding signal was -0.148 E-score. With GCAAGTCC the binding signal was -0.225 E-score. For GTGTGTTA, the binding signal was 0.0623 E-score. In the case of CGATTAAC, the binding signal is reported as -0.125 E-score. In the case of CGGCCGGC, the binding signal is reported as -0.249 E-score. ACCCTTGA was tested, and the binding signal was -0.115 E-score. ATTAGATG showed a binding signal of 0.265 E-score. Work on ACCACATG yielded a binding signal of 0.0265 E-score. With AAGGTGCG the binding signal was -0.288 E-score. Work on ACCCGTAC yielded a binding signal of -0.125 E-score. ACGACAGC gave a binding signal of -0.172 E-score. In the case of AATCCGAG, the binding signal is reported as 0.115 E-score. In the case of ACATCACC, the binding signal is reported as -0.123 E-score. Sequence CGAGAGAG has a binding signal of -0.15 E-score. For GCTAACGA, the binding signal was 0.131 E-score. In the case of AAATAGGA, the binding signal is reported as 0.152 E-score. GGGAATTA showed a binding signal of 0.135 E-score. ACGCTAAT showed a binding signal of 0.258 E-score. Work on ATGCCCTG yielded a binding signal of -0.0941 E-score. With CCTCCATC the binding signal was -0.129 E-score. GATTAGGA was tested, and the binding signal was -0.051 E-score. Work on CCGGGGTC yielded a binding signal of -0.34 E-score. AGCATCCG gave a binding signal of -0.119 E-score. Work on TACTAACA yielded a binding signal of 0.177 E-score. TCACACGA gave a binding signal of -0.105 E-score. Work on ACAGTTTA yielded a binding signal of -0.0129 E-score. For GTGCGGAA, the binding signal was -0.0499 E-score. With ATGGCAAG the binding signal was 0.0535 E-score. In the case of GACTCGTA, the binding signal is reported as -0.148 E-score. Sequence AAAAAAGC has a binding signal of 0.0176 E-score. ATTGCACG showed a binding signal of 0.034 E-score. In the case of CCTCGCAC, the binding signal is reported as -0.215 E-score. Sequence CTAATACC has a binding signal of 0.262 E-score. Work on CGCTTGGC yielded a binding signal of -0.145 E-score. In the case of ATGGGTGG, the binding signal is reported as 0.156 E-score. In the case of CATGAGCG, the binding signal is reported as -0.135 E-score. GGCTCACC gave a binding signal of -0.33 E-score. With CTTACTCA the binding signal was -0.0129 E-score. Sequence GTATGTTA has a binding signal of 0.173 E-score. Work on GGAAGGGA yielded a binding signal of -0.286 E-score. CCGGGCGA was tested, and the binding signal was -0.304 E-score. For AATCGAAA, the binding signal was 0.0906 E-score. Work on CAAATAGG yielded a binding signal of -6.59e-05 E-score. Sequence TTCCCGAA has a binding signal of -0.069 E-score. In the case of GATTCTGC, the binding signal is reported as 0.0425 E-score. For CGCACAGC, the binding signal was -0.196 E-score. With CGGATACG the binding signal was -0.0449 E-score. Sequence AATAAGAG has a binding signal of 0.0629 E-score. Sequence AGTGTCCC has a binding signal of -0.247 E-score. Work on GGCAACAA yielded a binding signal of -0.0733 E-score. ATTCCACG gave a binding signal of 0.0233 E-score. TAAGGACA gave a binding signal of -0.213 E-score. TAATGGCA showed a binding signal of 0.0693 E-score. In the case of CGGGTATA, the binding signal is reported as 0.155 E-score. Sequence CATGTATA has a binding signal of 0.2 E-score. ACGGGACG gave a binding signal of -0.207 E-score. Work on AAATAAAA yielded a binding signal of 0.258 E-score. With GTCGAACA the binding signal was 0.078 E-score. For CATGGCTC, the binding signal was -0.124 E-score. CCACAGAC was tested, and the binding signal was -0.0166 E-score. AATGCCGC gave a binding signal of 0.0234 E-score. For CCCTAACA, the binding signal was -0.0545 E-score. In the case of CACCCATC, the binding signal is reported as -0.135 E-score. AGCCTAAA was tested, and the binding signal was -0.129 E-score. Work on CAGAAAGA yielded a binding signal of -0.0578 E-score. Work on CCCTACTC yielded a binding signal of -0.269 E-score. Sequence CCAGACGG has a binding signal of 0.00887 E-score. For ATGGACTC, the binding signal was -0.115 E-score. GAGATTCA was tested, and the binding signal was 0.0314 E-score. With AAGGCATC the binding signal was 0.128 E-score. With CGACCCAG the binding signal was -0.0762 E-score. Sequence CGTGAGAA has a binding signal of 0.177 E-score. CAATTGAG showed a binding signal of 0.0246 E-score. TAGAATGA was tested, and the binding signal was 0.246 E-score. Work on ACTCCCTA yielded a binding signal of -0.269 E-score. In the case of GTTACGAA, the binding signal is reported as -0.151 E-score. In the case of CGTCATTC, the binding signal is reported as 0.164 E-score. With CGCCACAG the binding signal was -0.229 E-score. With TAGTGTGA the binding signal was 0.0421 E-score. Sequence AAAGTCAA has a binding signal of -0.0778 E-score. Sequence AACACATG has a binding signal of 0.0194 E-score. ACCAATAC showed a binding signal of -0.0177 E-score. Sequence ACGGTCAA has a binding signal of 0.0621 E-score. GCTACCTA gave a binding signal of 0.271 E-score. Work on AGGTTGTC yielded a binding signal of -0.00169 E-score. CTGCGATC was tested, and the binding signal was -0.063 E-score. GGCGGGAA showed a binding signal of -0.104 E-score. Sequence AAATTCTG has a binding signal of 0.207 E-score. In the case of CTCCCTTC, the binding signal is reported as -0.27 E-score. In the case of CAAGTCAG, the binding signal is reported as -0.15 E-score. ATATCGCC was tested, and the binding signal was 0.0442 E-score. CTGTATGA showed a binding signal of 0.0512 E-score. With GCGCTGGA the binding signal was 0.00918 E-score. Sequence GACATTCA has a binding signal of -0.0126 E-score. For GTCGTAAC, the binding signal was 0.0491 E-score. Sequence AGTCGGGA has a binding signal of -0.156 E-score. CAGCCCTG showed a binding signal of -0.157 E-score. Work on ATTGAGTC yielded a binding signal of 0.139 E-score. Sequence AACATAGC has a binding signal of 0.0664 E-score. In the case of GAAAGTAA, the binding signal is reported as 0.226 E-score. Work on AGCGTAGG yielded a binding signal of 0.0326 E-score. In the case of CGACACGA, the binding signal is reported as -0.071 E-score. GCTTAATA was tested, and the binding signal was 0.186 E-score. Sequence CGGACGTA has a binding signal of 0.162 E-score. Sequence CGTTCATC has a binding signal of -0.181 E-score. Sequence CGACCGGA has a binding signal of -0.00838 E-score. CCGATGTA showed a binding signal of 0.171 E-score. Work on GAACGTGC yielded a binding signal of -0.194 E-score. With CTGCTCTA the binding signal was 0.0496 E-score. CCATGGGA showed a binding signal of -0.277 E-score. CATTATGA gave a binding signal of 0.0691 E-score. Work on GAACTTGC yielded a binding signal of 0.0584 E-score. For AAGCTGCG, the binding signal was -0.00431 E-score. GAATAAAA showed a binding signal of 0.119 E-score. Work on CGCCCGAG yielded a binding signal of -0.165 E-score. In the case of ACACCACG, the binding signal is reported as -0.0773 E-score. With GCTAGCCC the binding signal was -0.205 E-score. For CCATGTGA, the binding signal was -0.0549 E-score. GAGGGTCC gave a binding signal of -0.237 E-score. Work on AAACTAAC yielded a binding signal of 0.308 E-score. Work on ATGACAGG yielded a binding signal of -0.15 E-score. ATCCGTAG was tested, and the binding signal was -0.123 E-score. With AAGGCGTC the binding signal was -0.219 E-score. AGTAGGTA gave a binding signal of 0.4 E-score. With ACTCGTCA the binding signal was -0.0101 E-score. CAGACGAC gave a binding signal of -0.0565 E-score. Sequence AGTCAAGC has a binding signal of 0.0524 E-score. ATGTTGTG showed a binding signal of -0.0523 E-score. With GCATTGAC the binding signal was -0.152 E-score. TAAAAGGA was tested, and the binding signal was -0.0824 E-score. For GGCCCAGA, the binding signal was -0.103 E-score. GTACTAAC was tested, and the binding signal was 0.145 E-score. For TAGATAAA, the binding signal was 0.292 E-score. Sequence CATGGTGG has a binding signal of -0.336 E-score. AAAGTAGT gave a binding signal of 0.328 E-score. With CCGGCGCC the binding signal was -0.268 E-score. In the case of GTTTGGTA, the binding signal is reported as 0.278 E-score. ACTCGTAG was tested, and the binding signal was 0.244 E-score. CTATAAGC gave a binding signal of 0.149 E-score. Work on GCGGATTA yielded a binding signal of -0.00735 E-score. With ACGGCACT the binding signal was -0.0261 E-score. ATCTCATA showed a binding signal of 0.16 E-score. With ATGAAGAA the binding signal was 0.0442 E-score. For GGTGTCGA, the binding signal was -0.13 E-score. In the case of GAATCAGC, the binding signal is reported as -0.0888 E-score.
